According to PubChem BioAssay AID686978 (National Center for Advancing Translational Sciences (NCATS), 2013):
In all, about 420,000 compounds went through this assay and about 64,000 (15%) were called active. This list was built around the results that the source calls inconclusive (neither active nor inactive); the mix of calls is not that of the screen. The call rests on the fitted dose curve; in most records, active means well fitted inhibition curve with a large enough effect; inconclusive means small, poorly fitted or top-dose-only effect; inactive means flat fitted curve, though single readings scatter. Potencies of inconclusive entries are left out as doubtful fits.

Assay: qHTS for Inhibitors of human tyrosyl-DNA phosphodiesterase 1 (TDP1): qHTS in cells in absence of CPT; further: nearly all actives have a fitted effect of over 55% in size
Conditions: DT40 Tdp1-/- hTDP1 cells, no CPT, ATP luminescence, 48 h; activity change, negative = growth inhibition: at 46.2 µM (top of the series)
Procedure, shortened: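 Chicken DT40 Tdp1-/- cells complemented with human TDP1, screened without camptothecin (DMSO vehicle only), 400 cells/well. Compounds pin-transferred, cells incubated at 37 °C for at least 48 hr. Growth read as ATP-dependent luminescence (CellTiter-Glo, 30 min at RT).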
On the % scale 0 is the no-effect control and ±100 the full control effect; potency means the concentration at half of the fitted maximal effect; tags describe the fitted curve by direction and shape.

| Structure (SMILES) | Potency | activity change, negative = growth inhibition |
| --- | --- | --- |
| COC(=O)Nc1ccc(S(=O)(=O)N2CCC(C(=O)N3CCC(C)CC3)CC2)cc1 | inconclusive [inhibitor, single point] |  |
| O=C(NCCc1ccccc1)/C(=C\c1ccc([N+](=O)[O-])cc1)NC(=O)c1ccc(Br)cc1 | inconclusive [inhibitor, single point] |  |
| CCOc1ccc(CCNC(=O)COC(=O)c2sccc2C)cc1OCC | active: 13 µM |  |
| CCOC(=O)CNc1nnc(SCC(=O)OCC)[nH]c1=O |  | inconclusive: -30.1% [inhibitor] |
| COc1ccc(NC(=O)c2c(-c3c(Cl)cccc3Cl)noc2C)c(OC)c1 | inconclusive [inhibitor, single point] |  |
| Cc1nnc2c(Nc3cccc(O)c3)nc3ccccc3n12 | inconclusive [inhibitor, partial curve] |  |
| N#CC1(c2ccc(NC(=O)c3ccccc3F)cc2)CCCC1 | inconclusive [inhibitor, single point] |  |
| CCCCOc1ccc2c(c1)C(=O)c1cc(O)ccc1-2 | inconclusive [inhibitor, partial curve, poor fit] |  |
| COC(=O)Cc1ccc(NC(=S)N2CCN(c3cc(Cl)ccc3C)CC2)cc1 | inconclusive [inhibitor, single point] |  |
| CCOc1ccc(N2C(=O)CC(N)C2=O)cc1 (centres undefined) | active: 2.59 µM |  |
| CCOC(=O)C1(CCc2ccccc2)CCN(Cc2ccc(O)cc2)CC1 | active: 20.6 µM |  |
| Cc1onc(-c2ccccc2Cl)c1C(=O)N1CCN(C/C=C/c2ccccc2)CC1 | active: 10 µM |  |
| O=C(c1ccccc1SCc1ccccc1)N1CCCCCC1 | inconclusive [inhibitor, single point] |  |
| Cc1ccc(-n2c(C)cc(/C=N/NC(=O)c3ccc(CN4CCOCC4)cc3)c2C)cc1 |  | inconclusive: -34.5% [inhibitor] |
| COc1ccc(CN(C)C(=O)[C@H]2O[C@@H](n3ccc(N)nc3=O)[C@H](O)[C@@H]2O)cc1OC | inactive |  |
| Cc1ccc(COc2ccc(/C=N/NC(=O)c3nnn(-c4nonc4N)c3COc3ccc(F)cc3)cc2)cc1 | inconclusive [inhibitor, single point] |  |
| COc1ccc(Cc2nnc(NC(=O)c3ccccc3C)s2)cc1 | inconclusive [inhibitor, partial curve] |  |
| CC(C)CCn1nnnc1CN1CCN(C(c2ccccc2)c2ccccc2)CC1 | active: 18.4 µM |  |
| CC1Cc2nc(SCC(=O)Nc3ccc(F)cc3)n(C)c(=O)c2S1 (centres undefined) | inconclusive [inhibitor, single point] |  |
